# This list was built around the results that the source calls inconclusive (neither active nor inactive); the mix of calls is not that of the screen. Where the call is inconclusive, the potency comes from a doubtful curve fit. Calls of active or inactive are those of the source. The call rests on the fitted dose curve; in most records, active means well fitted inhibition curve with a large enough effect; inconclusive means small, poorly fitted or top-dose-only effect; inactive means no such curve, though single readings can be large or run the other way.
# Molecular target: Retinaldehyde dehydrogenase 3 (Homo sapiens) (UniProt P47895)
# Assay: qHTS for Inhibitors of the Aldehyde Dehydrogenase Family (ALDH1A3) Primary screen (AID 2061315)
# Settings: ALDH inhibition qHTS; series mostly up to 56 µM
# Potency means the concentration at half of the fitted maximal effect; tags describe the fitted curve by direction and shape.
row,Structure (SMILES),Potency
1,C=C1[C@H](OC(C)=O)[C@H]2[C@@H](OC(C)=O)[C@](C)(OC(C)=O)C[C@]2(OC(C)=O)C(=O)[C@H](C)/C=C/C(C)(C)C(=O)[C@H](OC(=O)C(C)C)[C@H]1OC(C)=O,inactive
2,CC1(C)C2CC(OC3OC(COC4OCC(O)(CO)C4O)C(O)C(O)C3O)C1(C)CC2O (stereo unspecified),inactive
3,N#Cc1nc(NCC(F)F)c2ncn(-c3cccc(Cl)c3)c2n1,"inconclusive: 8.91 µM [inhibitor, partial curve]"
4,c1nc(NCc2ccc3c(c2)OCO3)c2cc(-c3ccoc3)ccc2n1,inactive
5,COc1ccc(/C=C/C(=O)N2CCCC2)cc1,"inconclusive: 39.8 µM [inhibitor, single point]"
6,CC1CCC2(O1)C(C)(C)CC(O[C@@H]1O[C@H](CO[C@@H]3OC[C@](O)(CO)[C@H]3O)[C@@H](O)[C@H](O)[C@H]1O)CC2(C)O (stereo partly specified),"inconclusive: 5.62 µM [inhibitor, partial curve, poor fit]"
7,CCc1ccc(NC(=O)c2cnn3c(C)cc(C)nc23)cc1,inactive
8,C/C(=C\c1ccccc1)C1Nc2cccc3cccc(c23)N1,"inconclusive: 3.16 µM [inhibitor, full curve]"
9,CC1(C)CC2C=C(C(=O)O)C3COC(=O)C(O)(CO)C23C1 (stereo unspecified),"inconclusive: 20 µM [inhibitor, partial curve, poor fit]"
10,Cc1ccc(-c2ccc(=O)n(CC(=O)NCc3ccccc3)n2)cc1,"inconclusive: 20 µM [inhibitor, single point]"
11,CO[C@@H]1[C@]2(O)C(=O)N3/C=C\C(C)(C)c4[nH]c5ccccc5c4/C=C\3C(=O)N2[C@]23[C@H](CO)C(C)(C)N2c2ccccc2[C@]13O,inactive

# From PubChem BioAssay (NCATS)
